Reference: paper PMC4336329 (PLoS ONE, 2015)
In all, about 310,000 compounds went through this assay and about 2,200 (0.71%) showed an effect of 50% or more. The effect is printed as a negative number. The list shows a part of the results.

Target: human ether-à-go-go-related gene (hERG) potassium channel (human, UniProt Q12809)
Assay: primary screen, population patch clamp on CHO cells stably expressing hERG

Chain of human ether-à-go-go-related gene (hERG) potassium channel (Q12809 whole entry, looked up): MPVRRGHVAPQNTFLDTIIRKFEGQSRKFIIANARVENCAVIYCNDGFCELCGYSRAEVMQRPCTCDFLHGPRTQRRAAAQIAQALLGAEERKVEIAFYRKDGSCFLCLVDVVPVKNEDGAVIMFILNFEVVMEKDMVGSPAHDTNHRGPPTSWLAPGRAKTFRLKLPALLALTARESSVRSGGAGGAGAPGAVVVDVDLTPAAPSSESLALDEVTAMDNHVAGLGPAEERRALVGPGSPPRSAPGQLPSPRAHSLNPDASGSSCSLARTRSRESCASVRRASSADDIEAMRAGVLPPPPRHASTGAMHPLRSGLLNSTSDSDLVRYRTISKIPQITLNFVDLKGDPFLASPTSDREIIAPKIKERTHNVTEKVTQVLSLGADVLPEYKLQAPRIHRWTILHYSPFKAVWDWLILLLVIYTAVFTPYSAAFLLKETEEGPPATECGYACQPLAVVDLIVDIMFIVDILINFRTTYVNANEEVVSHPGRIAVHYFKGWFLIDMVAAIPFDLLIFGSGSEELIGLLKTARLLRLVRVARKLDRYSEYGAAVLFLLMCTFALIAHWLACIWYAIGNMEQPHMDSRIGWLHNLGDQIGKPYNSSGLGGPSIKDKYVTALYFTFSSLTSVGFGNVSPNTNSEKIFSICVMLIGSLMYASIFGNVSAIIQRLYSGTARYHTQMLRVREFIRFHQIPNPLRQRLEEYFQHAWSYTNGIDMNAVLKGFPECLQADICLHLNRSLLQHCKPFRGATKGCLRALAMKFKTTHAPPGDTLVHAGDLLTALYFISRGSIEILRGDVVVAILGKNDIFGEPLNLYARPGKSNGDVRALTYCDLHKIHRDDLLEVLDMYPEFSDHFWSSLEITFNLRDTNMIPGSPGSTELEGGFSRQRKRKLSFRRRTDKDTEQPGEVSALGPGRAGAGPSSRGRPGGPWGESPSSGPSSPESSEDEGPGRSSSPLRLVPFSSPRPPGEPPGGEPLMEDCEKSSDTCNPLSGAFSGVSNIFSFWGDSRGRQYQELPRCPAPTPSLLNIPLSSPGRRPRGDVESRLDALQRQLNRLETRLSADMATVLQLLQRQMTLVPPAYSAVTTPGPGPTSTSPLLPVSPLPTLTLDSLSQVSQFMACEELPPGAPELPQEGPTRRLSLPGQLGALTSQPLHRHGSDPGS

| Compound | hERG current change (%, negative = inhibition) at 1uM [%] |
| --- | --- |
| CC(C)C(NC(=O)c1ccccc1)C(=O)N1CCCCCC1 (centres unmarked) | 18.1 |
| Cc1cc(=O)oc2cc(OCC(=O)OCc3nnc(-c4ccccc4)o3)ccc12 | 14.9 |
| CC(=O)N1CCC(N(CCN2CCOCC2)C(=S)Nc2ccc(C)cc2)CC1 | 5.62 |
| O=C(COC(=O)C12CC3CC(CC(Br)(C3)C1)C2)N1CCOCC1 | 3.26 |
| Nn1c(SCc2ccccc2)nnc1C1CCCCC1 | 8.62 |
| CNS(=O)(=O)c1cccc(C(=O)OCC(=O)c2cc3ccccc3o2)c1 | 21 |
| COc1cccc(N2CCN(c3ccc4nnc(CCC(=O)Nc5ccc(F)cc5F)n4n3)CC2)c1 | 4.98 |
| O=S(=O)(/N=C(/c1ccc(F)cc1)N1CCCCC1)c1ccc(Cl)cc1 | 2.75 |
| Cc1ccc(C(=O)N(CC(=O)NC2CCCCC2)c2ccccc2F)s1 | 9.21 |
| O=C(c1ccco1)N1CCN(C(c2ccc(Cl)cc2)c2nnnn2Cc2ccccc2)CC1 (centres unmarked) | 1.83 |
| COC(=O)NN1C(=O)C(c2ccccc2)=C(c2ccc(Cl)cc2)C1=O | 8.09 |
| FC(F)(F)c1cccc(OCc2noc(-c3ccsc3)n2)c1 | 2.33 |
| Cc1nc2cc(-c3ccccc3)nn2c(C)c1CCC(=O)N1CCC2(CC1)OCCO2 | -17.1 |
| CCCCN(C(=O)CSc1nnnn1C)c1c(N)n(Cc2ccccc2)c(=O)[nH]c1=O | 5.98 |
| Cc1c(C#N)c2ncnc(N)c2n1-c1ccccc1 | 8.09 |
| CCN(c1ccccc1)S(=O)(=O)c1cc(CN2C(=O)c3cccnc3C2=O)ccc1OC | 12.3 |
| COc1ccc(OC)c(NC(=O)c2cccnc2)c1 | 14.8 |
| CCCCN(Cc1ccc(C(=O)N[C@H](C(=O)O)C(C)C)cc1)C(=O)C(c1ccccc1)c1ccccc1 | 0.507 |
| Cc1cc(Cl)ccc1OCC(=O)N/N=C/c1ccncc1 | 10.4 |
| COC(=O)c1cc(S(=O)(=O)NCCc2ccc(SC)cc2)c[nH]1 | 8.98 |
| O=c1[nH]c(N2CCOCC2)cc2ccccc12 | 4.63 |
| O=C1CCC(C(=O)Nc2cccc(S(=O)(=O)N3CCOCC3)c2)N1 (centres unmarked) | 5.74 |

| Compound | hERG current change (%, negative = inhibition) at 1uM [%] |
| --- | --- |
| COc1ccc(NC(=O)CC2C(=O)N(c3ccccc3)C(=O)N2Cc2ccco2)cc1 (centres unmarked) | 3.5 |
| CCNc1nnc(-c2ccccc2OC)s1 | -7.06 |
| O=C(NCc1ccccn1)Nc1ccc2c(c1)OCO2 | 17.1 |
| Cn1c(=O)oc2cc(S(=O)(=O)N3CCCC3)ccc21 | 13.2 |
| Fc1ccc(/C=N/N2CCOCC2)c(F)c1 | 47.1 |
| COC(=O)C1=C(C(=O)OC)C(c2cc(Br)ccc2O)c2sc(=O)[nH]c2S1 (centres unmarked) | -4.61 |
| O=C(NCc1ccccc1)N[C@@H](Cc1c[nH]c2ccccc12)C(=O)O | -3.67 |
| CC(C)COc1ccc(-c2nnn(CC(=O)N3CCCC3)n2)cc1 | -10.7 |
| CC(=O)c1oc2ccccc2c1NC(=O)COC(=O)c1ccc(-n2nc(C)cc2C)cc1 | 21.3 |
| CCC(=Nc1ccccc1OC)C1=C(O)CC(c2ccccc2)CC1=O (centres unmarked) | 4.65 |
| COC(=O)c1cc(OC)c(OC)cc1-n1cnc2cc(OC)c(OC)cc2c1=O | 14.4 |
| C=CCN1C(=O)C2(OCCCO2)c2cc(Cl)ccc21 | 13.8 |
| CCOc1ccc(CN2CCN(Cc3cccc4c3OCO4)CC2CCO)cc1 (centres unmarked) | -64.9 |
| COC(=O)c1cc(NC(=O)Cc2coc3cc(OC)ccc23)cc(C(=O)OC)c1 | 3.34 |
| COC(=O)c1ccc(Sc2ccccn2)c([N+](=O)[O-])c1 | 12.6 |
| N#CCCN(C(=O)COC(=O)c1ccc2c(=O)n3c(nc2c1)CCC3)c1ccc(F)cc1 | 1.88 |
| CC1(C)CC(N(Cc2ccco2)C(=O)Cc2ccccc2)CCO1 (centres unmarked) | 6.16 |
| O=c1c2c3c(sc2n2c(=S)[nH]nc2n1-c1ccccc1)CCC3 | 13 |
| COC(=O)CC1C(=O)NCCN1C(=O)c1ccccc1 (centres unmarked) | 11.9 |
| C=CCc1cccc2cc(C(=O)OCC)c(=O)oc12 | -16.4 |
| Cc1ccc2c(c1)N(Cc1ccncc1)C(=O)C(C)O2 (centres unmarked) | -10.9 |
| CCO[C@@H]1OC(C(=O)NCc2ccccc2)=C[C@H](c2coc3ccccc3c2=O)[C@H]1CCCO | -4.22 |
